Among all 310,000 compounds or so, about 14,000 (4.5%) showed an effect of 50% or more. The effect is printed as a negative number. This is one part of the list.
The molecules below were run against human ether-à-go-go-related gene (hERG) potassium channel (human, UniProt Q12809) (assay: primary screen, population patch clamp on CHO cells stably expressing hERG).
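Note: peak tail current of the secondary pulse compared with the same well before compound.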

Chain of human ether-à-go-go-related gene (hERG) potassium channel (Q12809 whole entry, looked up): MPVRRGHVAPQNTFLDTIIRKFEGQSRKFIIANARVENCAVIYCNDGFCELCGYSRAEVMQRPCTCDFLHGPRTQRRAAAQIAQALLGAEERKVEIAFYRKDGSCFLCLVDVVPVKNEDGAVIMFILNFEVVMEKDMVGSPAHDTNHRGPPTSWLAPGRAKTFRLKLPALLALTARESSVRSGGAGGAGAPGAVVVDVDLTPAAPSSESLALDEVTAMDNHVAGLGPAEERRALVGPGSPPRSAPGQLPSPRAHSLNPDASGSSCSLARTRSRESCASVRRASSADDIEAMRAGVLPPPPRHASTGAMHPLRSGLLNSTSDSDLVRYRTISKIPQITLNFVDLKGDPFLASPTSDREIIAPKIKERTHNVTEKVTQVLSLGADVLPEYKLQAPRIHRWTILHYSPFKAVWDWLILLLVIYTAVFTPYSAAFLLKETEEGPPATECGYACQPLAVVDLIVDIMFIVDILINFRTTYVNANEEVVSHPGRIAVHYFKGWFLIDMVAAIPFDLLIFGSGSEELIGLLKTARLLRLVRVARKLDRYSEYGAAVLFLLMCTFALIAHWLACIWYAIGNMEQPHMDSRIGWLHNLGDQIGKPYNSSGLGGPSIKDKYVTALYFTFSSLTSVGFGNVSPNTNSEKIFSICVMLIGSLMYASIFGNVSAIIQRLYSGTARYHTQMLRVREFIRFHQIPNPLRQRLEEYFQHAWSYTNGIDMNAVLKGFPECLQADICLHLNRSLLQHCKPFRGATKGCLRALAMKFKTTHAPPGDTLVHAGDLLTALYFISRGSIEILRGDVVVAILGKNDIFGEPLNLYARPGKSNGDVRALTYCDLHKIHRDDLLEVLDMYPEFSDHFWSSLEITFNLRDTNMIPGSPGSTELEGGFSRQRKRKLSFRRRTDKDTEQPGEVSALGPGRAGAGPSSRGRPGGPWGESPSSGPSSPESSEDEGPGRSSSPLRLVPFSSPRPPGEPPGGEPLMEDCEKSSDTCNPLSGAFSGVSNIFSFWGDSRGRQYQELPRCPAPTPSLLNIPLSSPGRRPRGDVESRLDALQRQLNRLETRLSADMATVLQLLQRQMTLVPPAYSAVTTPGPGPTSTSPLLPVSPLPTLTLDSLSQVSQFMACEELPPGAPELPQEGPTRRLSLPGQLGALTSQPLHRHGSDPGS

SMILES | hERG current change (%, negative = inhibition) at 10uM
O=C(NCc1cccnc1)c1ccc(-c2ccccc2[N+](=O)[O-])o1 | -23.5%
COC(=O)c1cccc(NC(=O)Cc2ccsc2)c1 | 1.14%
Cc1cccc(CNC(=O)c2ccccc2NC(=O)C2=CSCCO2)c1 | 21.1%
Cc1ccc(-n2nc3c(c2NC(=O)c2ccccc2Br)CS(=O)C3)cc1 (stereo not drawn) | 4.13%
NC(=O)C1CCCN(S(=O)(=O)c2ccc(Br)cc2)C1 (stereo not drawn) | -8.17%
COc1ccc(Cn2c(O)c(C=NCCN3CCOCC3)c(=O)[nH]c2=O)cc1 | -14.4%
CN(CC(=O)N1CCCC1)S(=O)(=O)c1ccc(Cl)cc1 | -10.2%
C=CCN1C(=NC(=O)CC)SC2CS(=O)(=O)CC21 (stereo not drawn) | 25.3%
CC(C(=O)c1ccc(Br)cc1)[n+]1cccc2ccccc21.[Br-] (stereo not drawn) | -13.8%
Cc1cccc(-n2cc(C(=O)O)c(=O)cc2C)c1 | 16.1%
COc1ccc(C)cc1C(=O)C1CC(C(=O)O)C(C)(C)C1C (stereo not drawn) | -2%
Cc1ccccc1NC(=O)c1ccccc1O | 9.03%
O=C(c1ccccn1)N1CCCC(N2CCN(c3ccccc3)CC2)C1 (stereo not drawn) | 4.01%
CC(C)(C)N/N=C/c1cc(Cl)cc([N+](=O)[O-])c1O.Cl | -10.9%
CC1CN(S(=O)(=O)c2cccc(C(=O)OCCOc3ccccc3)c2)CC(C)O1 (stereo not drawn) | -1.04%
CCC(NC(=O)NNC(N)=S)(C(F)(F)F)C(F)(F)F | 4.3%
COC1CCCN(Cc2c(C(=O)N3CCc4ccccc4C3)nc3ccc(Cl)cn23)C1 (stereo not drawn) | -35.9%
O=C1NC2(C=Cc3c(ccc4ccccc34)O2)Oc2ccccc21 (stereo not drawn) | 16.4%
CC1Cc2ccccc2N1C(=O)CN1CCN(Cc2ccccc2)CC1.O=C(O)C(=O)O (stereo not drawn) | -11.8%
Cc1cc(C)n(CC(=O)c2cccc([N+](=O)[O-])c2)n1 | 15.3%
CCC1CCCCN1C(=O)c1ccccc1OC1CCN(S(C)(=O)=O)CC1 (stereo not drawn) | 21.2%
COc1ccc(C(=O)Nc2ccccc2C(=O)N2CCOCC2)cc1 | 15.2%
CC1(C)CC(=O)N(c2cccc(Cl)c2)C(=O)C1 | 10.4%

SMILES | hERG current change (%, negative = inhibition) at 10uM
OCC(CBr)(CBr)CBr | 16.5%
O=C(Nc1ccc2nc3n(c(=O)c2c1)CCCCC3)C(=O)N1CCN(c2ccccc2F)CC1 | 14.2%
COc1ccc(-c2cc(CNS(=O)(=O)c3ccc(F)cc3)on2)cc1 | 16.7%
Cc1ccc(CNC(=O)COC(=O)c2ccc(Cl)c(N)c2)cc1 | -3.37%
COc1ccc(CCNC(=O)c2ccccc2)cc1 | 5.73%
CCOc1ccc(N2CC(NS(=O)(=O)c3cccs3)CC2=O)cc1 (stereo not drawn) | 4.66%
CCOc1ccc(Nc2nc(Cc3nnc(SCC(=O)N(CC)CC)n3C)cs2)cc1 | -23.1%
Cc1cc(NC(=O)c2cccc(Br)c2)n[nH]1 | 4.84%
Cc1nc2ccc(NC(=O)c3ccc4ccccc4n3)cc2s1 | 14%
O=C(O)c1ccccc1S(=O)(=O)Cc1ccccc1 | -0.597%
Nc1nc(SCC(=O)Nc2cc(C(F)(F)F)ccc2Cl)[nH]c(=O)c1NC(=O)c1ccco1 | 22.5%
COc1ccc(NC(=O)C2(c3ccc(NC(=O)c4ccc(OC(C)=O)cc4)cc3)CCCC2)cc1 | 11.1%
O=C(CSc1ccc(-c2ccco2)nn1)NC1CCCCC1 | -20.3%
COc1ccc(CCNC(=O)CCS(=O)(=O)c2ccc(Br)cc2)cc1OC | -17.1%
C=CCN1C(=O)/C(=C/c2ccc3c(c2)CCCN3CCC)C(=O)NC1=S | -0.0356%
CC(CNC(=O)c1ccc(N)cc1)NC(=O)c1ccc(N)cc1 (stereo not drawn) | 9.03%
C=CCn1sc(=N)c(C#N)c1N | -19.8%
O=C(O)C1=C[C@H](c2ccc(F)cc2)C[C@H](OCc2ccc(CO)cc2)O1 | 4.49%
O=C1C2C3C=CC(CC3)C2C(=O)N1c1cccc(Br)c1 (stereo not drawn) | 22.1%
COc1ccc(NS(=O)(=O)c2cc(NC(=O)/C=C/c3cc(OC)c(OC)c(OC)c3)ccc2N2CCCCC2)cc1 | 1.67%
Cc1cnc(CNC(=O)C2CCC(=O)N(CCc3cccc(F)c3)C2)[nH]1 (stereo not drawn) | 10.6%
CCN(CC)C(=O)C(Sc1nnnn1-c1ccc(O)cc1)c1ccccc1 (stereo not drawn) | -1.03%
COc1ccc(C)cc1NC(=O)C(Sc1nnc2ccccn12)c1ccccc1 (stereo not drawn) | -67.7%

SMILES | hERG current change (%, negative = inhibition) at 10uM
CN(C(=O)NC1CC(=O)N(c2ccc3c(c2)OCCO3)C1)c1ccccc1 (stereo not drawn) | -5.44%
CCCCn1c(N)c(N(CC(C)C)C(=O)c2cc(-c3ccncc3)nc3ccccc23)c(=O)[nH]c1=O | 6.7%
Cc1cc(C(=O)OCC(=O)Nc2sc3c(c2C#N)CCC(C)C3)c2ccccc2n1 (stereo not drawn) | 5.2%
CCOC(=O)c1cnc(-n2nc(C)cc2C)nc1NC | -9.96%
CCOc1ccccc1NC(=O)Cn1nnc(C(=O)NCc2cccs2)c1N | 13.4%
N#Cc1c(Nc2ccccc2)sc(C(=O)c2ccc(F)cc2)c1N | -2.12%
O=C(Cn1ncc(N2CCOCC2)c(Cl)c1=O)c1ccc(Cl)cc1 | -32.8%
COc1ccccc1NC(=O)Cn1nc(-c2ccc3c(c2)OCCO3)ccc1=O | 0.512%
C=CCn1c(=N)n(CC(O)COc2ccccc2OC)c2ccccc21.Cl (stereo not drawn) | -67%
Cc1cc(OCCN2CCOCC2)ccc1[N+](=O)[O-].O=C(O)C(=O)O | 5.11%
O=C(CCCSc1ccccc1)Nc1ccc(Cl)c(S(=O)(=O)N2CCOCC2)c1 | -5.89%
CC(C)(C)OC(=O)N[C@@H](COCc1ccccc1)C(=O)N[C@@H](CO)[C@H](O)[C@@H]1C[C@@H]1C(=O)NC1CCCCC1 | 11.4%
O=C(NC(Cc1ccc(O)cc1)C(=O)O)c1ccco1 (stereo not drawn) | 27.4%
Cc1ccc(S(=O)(=O)N2CCN(C)CC2)cc1[N+](=O)[O-] | -2.05%
O=C(CCCc1ccccc1)Nc1ccnn1C1CCN(Cc2ccccn2)CC1 | -15.2%
Cc1ccccc1NC(=O)Nc1ccc(C(F)(F)F)cc1 | 16.3%
CCCc1n[nH]c(=O)[nH]1 | 8.06%
COc1cc(NC(=O)C2CC3CCC2C3)c(OC)cc1Cl (stereo not drawn) | 5.77%
NCC(O)COc1ccc2c(c1)OCO2 (stereo not drawn) | 4.96%
CC(C)CN(C(=O)CN1CCc2ccccc21)c1c(N)n(CC(C)C)c(=O)[nH]c1=O | 16%
CN1CCN(S(=O)(=O)c2cccc(C(=O)Nc3cccc(S(N)(=O)=O)c3)c2)CC1 | 12.8%
CC1([N+](=O)[O-])COC2(OC1)C(=O)Nc1ccccc12 (stereo not drawn) | 14.7%
CC1=CCC(C(=O)O)C(C(=O)Nc2cccnc2)C1 (stereo not drawn) | 0.464%

SMILES | hERG current change (%, negative = inhibition) at 10uM
O=C(Cn1cnc([N+](=O)[O-])n1)NCCO | 16.2%
COc1ccc(C2=NOC(C)(c3nnc(-c4ccncc4)o3)C2)cc1 (stereo not drawn) | 1.73%
O=C(OCc1c(F)cccc1Cl)c1cnc(Cl)c(Cl)c1 | 11.3%
Cc1nc2cc(-c3ccccc3)[nH]n2c(=O)c1C | 9.88%
COCCCn1c2nc3ccccc3nc2c2c(=O)n(Cc3cccs3)cnc21 | 2.83%
NC(=O)c1c(NC(=O)CSc2nnc(-c3ccccc3)n2CC2CCCO2)sc2c1CCC2 (stereo not drawn) | -21.9%
CC(=O)C(Cc1ccccc1)(Cc1ccccc1)C(C)=O | 5.19%
O=C(Cc1ccccc1)OCC(=O)N1CCN(S(=O)(=O)c2ccc(Cl)cc2)CC1 | -18.5%
COc1ccc(/C=C/C(=O)OCC(=O)Nc2ccc(Cl)cn2)cc1 | 11%
Br.CC(C)(C)c1cc(C2=CSC3=NCCN23)cc(C(C)(C)C)c1O | -76.2%
O=C(CNC(=O)c1cccs1)NCCc1ccco1 | 3.77%
Cc1cnc(C(=O)OCC(=O)NCc2ccc3c(c2)OCO3)cn1 | 8.44%
COc1ccc(CCN2C(=O)C(Oc3ccccc3C)C2c2ccc3c(c2)OCO3)cc1 (stereo not drawn) | -42.3%
C=CCOc1ccc(CC2C(=O)N(C)C(=O)N(C)C2=O)cc1 | 10.1%
COc1ccc(C2CN(C)CC2C(=O)c2ccc(C)cc2)cc1Cl (stereo not drawn) | -63%
CCOCCCNC(=O)C1CCN(S(=O)(=O)N(CC(C)C)CC(C)C)CC1 | 1.6%
Cc1ccc(CNC(=O)c2ccc(CS(=O)(=O)c3ccccc3)o2)cc1 | -8.29%
CCc1cccc(C)c1NC(=S)N1CCCC1C(=O)O (stereo not drawn) | 16.6%
CCOC(=O)C1CCN(C(=O)c2cc(S(=O)(=O)N3CCc4ccccc43)ccc2OC)CC1 | -60.3%
COc1ccc(S(=O)(=O)n2ccc(-c3cnc(-c4ccccc4)s3)n2)cc1 | 9.73%
O=C(NCC1CCCO1)C(=O)N/N=C\c1ccc2c(c1)OCO2 (stereo not drawn) | 2.44%

From publication PMC4336329 (PLoS ONE, 2015)
